# Data as given in PubChem BioAssay AID894 (National Center for Advancing Translational Sciences (NCATS), 2007).
# The whole screen tested about 150,000 compounds, of which about 6,500 (4.3%) were called active. This list was built around the results that the source calls inconclusive (neither active nor inactive); the mix of calls is not that of the screen. Calls come from the whole dose curve; as a rule, active = well fitted inhibition curve with a large enough effect (not every such curve was filed as active); inconclusive = small, poorly fitted or top-dose-only effect, or another doubt; inactive = no such curve, though single readings can be large or run the other way. Potencies of inconclusive entries are left out as doubtful fits.
# Target: 15-hydroxyprostaglandin dehydrogenase [NAD(+)] (Homo sapiens) (UniProt P15428)
# Experiment: qHTS Assay for Inhibitors of HPGD (15-Hydroxyprostaglandin Dehydrogenase)
# Conditions: purified HPGD, NADH fluorescence kinetic, PGE2 substrate; activity change, negative = inhibition: stronger effect = lower value
# Procedure, shortened: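 NADH formation kinetics: reaction with 30 uM PGE2 and 1 mM NAD+ (final), 20 nM enzyme, Tris-HCl pH 8 with Tween 20, after 15 min compound preincubation at room temperature. Fluorescence change, last versus first of five reads.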
# % is set by controls: 0 for no effect and ±100 for the full control effect; potency is the fitted concentration of half-maximal effect; tags give direction and shape of the fitted curve.
# UniProt P15428, sequence (P15428 whole entry, looked up): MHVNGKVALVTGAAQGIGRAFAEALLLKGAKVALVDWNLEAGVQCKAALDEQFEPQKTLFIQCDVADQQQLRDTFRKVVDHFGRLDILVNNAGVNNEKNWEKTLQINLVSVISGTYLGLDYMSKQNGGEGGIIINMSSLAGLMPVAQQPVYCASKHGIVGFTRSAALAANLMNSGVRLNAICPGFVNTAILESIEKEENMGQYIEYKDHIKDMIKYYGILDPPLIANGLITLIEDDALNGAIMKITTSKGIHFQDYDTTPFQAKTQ
Compound,"activity change, negative = inhibition",Potency
Nc1ccc(C(=O)N/N=C\c2cc(N=Nc3cccc4ccccc34)ccc2O)cc1,inactive: -16.2%,
COc1ccnc(CS(=O)c2nc3ccc(OC(F)F)cc3[nH]2)c1OC (stereo not given),,"inconclusive [inhibitor, partial curve]"
Cc1ccc(OCc2nc(-c3ccc(-n4cccc4)cc3)no2)cc1C,inactive: -8.4%,
COc1ccc(-n2ncc3c(NCc4ccccn4)ncnc32)cc1,,"inconclusive [inhibitor, partial curve]"
CCOC(=O)c1sc2nc(C)cc(C)c2c1N,,"inconclusive [inhibitor, partial curve]"
CCOC(=O)c1c(NS(=O)(=O)c2cccc(OC)c2)sc2c1CCC2,,active: 35.5 µM
Cc1nn(-c2ccccc2)c(C)c1P(=O)(c1ccccc1)N(C)C (stereo not given),inactive: 3.69%,
CSCc1ccc(C(=O)Nc2cccc(C)c2C)cc1,inactive: -13.6%,
COC(=O)C1=C(C)NC2=C(C(=O)CCC2)C1c1cccc(C)n1 (stereo not given),,"inconclusive [inhibitor, partial curve]"
CCN1CCCc2cc(CN(CCN3CCOCC3)C(=O)Nc3ccc(C)c(C)c3)ccc21,inactive: -8.38%,
Cc1ccccc1-c1nnc(SCCOc2ccc3c(C)cc(=O)oc3c2)o1,,"inconclusive [inhibitor, partial curve]"
CCn1c2ccccc2c2cc(NC(=O)COC(=O)c3cccc(S(=O)(=O)NC)c3)ccc21,inactive: -6.66%,
Cc1ccc(-n2c(N)c(C(N)=O)sc2=S)cc1,,active: 7.94 µM
Cc1ccc2ccc(S(=O)(=O)n3nc(C)cc3C)cc2c1,,"inconclusive [inhibitor, single point]"
COc1cc(/C=C/C(=O)Nc2nnc(CC(C)(C)C)s2)cc(OC)c1OC,,"inconclusive [inhibitor, partial curve]"
Cc1ncc([N+](=O)[O-])n1C[C@H](O)CCl,inactive: -8.12%,
Cc1ccc(-c2nc3ncccc3o2)cc1NC(=O)c1sc2ccccc2c1Cl,,"inconclusive [inhibitor, partial curve]"
CC(=O)c1ccc(NS(=O)(=O)c2cccc(C)c2)cc1,,"inconclusive [inhibitor, partial curve]"
CCOC(=O)C(CC)Sc1nc2c(c(=O)[nH]c(=O)n2C)n1C/C=C(/C)Cl (stereo not given),,active: 3.98 µM
COc1ccc2c(c1[N+](=O)[O-])CCC/C2=N/OC(=O)c1cccc2ccccc12,inactive: -1.86%,
O=C(CN1CCCC1)Nc1ccc(-c2nc3cc(NC(=O)CN4CCCC4)ccc3o2)cc1,,"inconclusive [inhibitor, partial curve]"
Cc1c(C(=O)NCc2cccnc2)oc2ccc(S(=O)(=O)N3CCCC(C)C3)cc12 (stereo not given),inactive: -12.7%,
NC(=O)C[n+]1cccc2ccccc21,,"inconclusive [inhibitor, partial curve]"
CCc1ccc(N(CC)C(=O)c2ccc3c(Cl)c4c(nc3c2)CCC4)cc1,,"inconclusive [inhibitor, partial curve]"

Compound,"activity change, negative = inhibition",Potency
CCOC(=O)C1CCN(c2ncnc3c2[nH]c2cccc(OC)c23)CC1,,"inconclusive [inhibitor, partial curve]"
COc1cc(OC)cc(C(=O)NCC2CCCO2)c1 (stereo not given),,active: 25.1 µM
Cc1cc(C)c2nc(-c3ccccn3)cc(C(=O)Nc3ccc(S(=O)(=O)Nc4cc(C)on4)cc3)c2c1,,"inconclusive [inhibitor, partial curve]"
O=C(c1ccc2snnc2c1)N1CCOCC1,inactive: -6.97%,
CCOCCCNC(=O)c1ccc(Br)cc1,,"inconclusive [inhibitor, partial curve]"
O=C(CN1CCCCC1)NC(=O)NCc1ccccc1,inactive: -12.8%,
CCN1CCN(c2nc(-c3cccs3)nc3ccccc23)CC1,,"inconclusive [inhibitor, partial curve]"
CCOC(=O)CSc1nc(C)cc(=O)[nH]1,inactive: -7.84%,
O=C(Nc1ccc(NC(=O)c2ccco2)cc1)c1ccc2c(c1)OCO2,,"inconclusive [inhibitor, partial curve]"
COc1ccc(CCn2c(-c3ccco3)nc3nc4ccccc4nc32)cc1,,"inconclusive [inhibitor, partial curve]"
Cc1cc2cc(C(c3nnnn3Cc3ccco3)N3CCc4ccccc4C3)c(=O)[nH]c2cc1C (stereo not given),,"inconclusive [inhibitor, single point]"
Cc1csc(NC(=O)c2cc3c(s2)-c2ccccc2OC3)n1,,"inconclusive [inhibitor, partial curve]"
COc1cc(CNCCc2c[nH]c3ccccc23)ccc1OCc1ccccc1F,inactive: -6.11%,
CCOC(=O)c1ccccc1NC(=O)Cn1cnc2c(nnn2-c2ccc(C)cc2)c1=O,,"inconclusive [inhibitor, partial curve]"
CCOC(=O)c1sc(NC(=O)/C=C/c2cnn(C)c2C)c(C(=O)OCC)c1C,,"inconclusive [inhibitor, partial curve]"
CC(C)(C)C1CCc2[nH]c3ccccc3c(=O)c2C1 (stereo not given),,"inconclusive [inhibitor, partial curve]"
COc1ccccc1/C=N/NC(=O)CC(=O)Nc1ccc(Cl)c(Cl)c1,inactive: -11.8%,
Cc1c(NC(=O)/C(C#N)=C/c2ccc(-c3cccc(Cl)c3)o2)c(=O)n(-c2ccccc2)n1C,,active: 17.8 µM
O=[N+]([O-])c1cc2c(cc1C=Nc1ccccc1)OCO2,inactive: -13.8%,
CCc1ccc(-c2nc(NC(=O)c3ccc(OCC(=O)Nc4ccc(F)cc4)c(OC)c3)sc2C)cc1,,"inconclusive [inhibitor, partial curve]"
O=C(Nc1cccc(-c2cn3cccnc3n2)c1)c1ccc2c(c1)OCO2,,"inconclusive [inhibitor, partial curve]"
CC1(C)Cc2c(c(N3CCOCC3)nc3sc(-c4ccc(C(=O)O)o4)c(N)c23)CO1,,"inconclusive [inhibitor, partial curve]"
Cc1ccc(C)c(Cn2cnc3c(cnn3C(C)(C)C)c2=O)c1,,active: 22.4 µM
CCOC(=O)c1cnc2ccc(OCC)cc2c1NCc1ccccc1,,"inconclusive [inhibitor, partial curve]"

Compound,"activity change, negative = inhibition",Potency
CCN=c1scc(-c2ccco2)n1/N=C/c1ccc(O)cc1,,"inconclusive [inhibitor, partial curve, poor fit]"
CCOC(=O)Cn1c(=O)n(Cc2ccco2)c(=O)c2ccc(C(=O)NC3CCCC3)cc21,inactive: -3.64%,
Cc1cc(-c2ccccc2)c2nncn2n1,,"inconclusive [inhibitor, partial curve]"
CCOC(=O)C1CCN(c2ncnc3c2cnn3-c2ccc(Cl)cc2)CC1,,"inconclusive [inhibitor, single point]"
COc1ccc(CN(C)C2CCCCC2)c(C)c1C,inactive: -3.78%,
O=c1c2cc(N3CCOCC3)ccc2[nH]c(=S)n1Cc1cccc(Cl)c1,,"inconclusive [inhibitor, partial curve]"
CCCN1C(=O)c2ccc(C(=O)NC3CCCCC3)cc2C1=O,inactive: 4.22%,
CSc1cc(-c2ccc(Cl)cc2)n(Cc2ccccc2)c(=O)c1C#N,,"inconclusive [inhibitor, partial curve]"
O=C(Nc1nc2ccc(SC(F)F)cc2s1)c1ccc(NS(=O)(=O)c2ccc(F)c(F)c2)cc1,,"inconclusive [inhibitor, partial curve]"
O=C(O)[C@@H](O)[C@@H](O)[C@@H](O)[C@@H](O)c1nc2ccccc2s1,,active: 3.55 µM
Cc1ccc2oc(=O)n(Cc3ccccc3OC(C)C)c2c1,,"inconclusive [inhibitor, partial curve, poor fit]"
COc1cc(/C=N/NC(=S)Nc2cccc(C(=O)O)c2)ccc1O,,"inconclusive [inhibitor, partial curve]"
CCCCOc1ccc(S(=O)(=O)n2c(C)nc3ccccc32)cc1,inactive: -5.86%,
Cc1ccc2nc3c(cc(C(=O)NCC4CCCO4)c(=N)n3CCCOC(C)C)c(=O)n2c1 (stereo not given),,"inconclusive [inhibitor, partial curve]"
Cc1cc(C)c2c(N)c3ccccc3nc2n1,,"inconclusive [inhibitor, partial curve]"
S=c1[nH]nc(-c2ccco2)n1C1CCCCC1,,"inconclusive [inhibitor, partial curve]"
Nc1nc(SCc2ccc([N+](=O)[O-])cc2)c2ncn([C@@H]3O[C@H](CO)[C@H](O)[C@H]3O)c2n1,,active: 25.1 µM
C#CCNC(=O)/C=C/c1ccc(OC)cc1,inactive: -13.3%,
CC1=NN(c2ccc(C(F)(F)F)cn2)C(=O)C1,inactive: -9.14%,
CCOc1ccccc1-c1ccc(C(=O)NCc2ccccc2)o1,,"inconclusive [inhibitor, partial curve]"
C=CCn1c(C2CC(=O)N(c3ccc(C)cc3)C2)nc2ccccc21 (stereo not given),,"inconclusive [inhibitor, partial curve]"
COc1ccc2cc(/C=N/NC(=O)c3ccc(CN(c4cccc(Cl)c4Cl)S(C)(=O)=O)cc3)c(Cl)nc2c1,,"inconclusive [inhibitor, partial curve]"
